Among the data in paper PMC8167812 (Cell reports, 2021) are Kd, koff and kon values, retold here.

The target of this test is Clr4 SET domain (residue 190–490) (fission yeast, UniProt O60016 190-490). The experiment in a line: BLI. (In general: Biolayer interferometry detects binding as a change in optical thickness at a sensor tip.)

B1: Histone H3 tail peptide H3K9MK14C with a C-terminal biotinylated lysine (peptide)
peptide: not shown
modifications: C-terminal biotinylated lysine
Broadly, the Kd is the free concentration of one partner at which half of the binding sites on the other are occupied at equilibrium, for simple one-to-one binding. Read a low Kd as higher affinity. As a reminder, the koff is a measure of how fast the partners let go of each other. In general, kon refers to the second-order rate constant of association. The low end stands for slow association, the high end for fast association. As to B1, the affinity, expressed as Kd, was 1.42 µM; the koff stood at 0.0723 s⁻¹; the kon came to 50800 M⁻¹ s⁻¹.

B2: Histone H3 tail peptide with K9M containing a ubiquitin mimic at H3K14 (H3K9MK14C peptide cross-linked to Ub-G76C) (complex)
chain 1: not shown
chain 2: not shown
With B2, the off-rate constant (koff) is 0.0405 s⁻¹.
